Measurements as given in PubChem BioAssay AID1347073 (National Center for Advancing Translational Sciences (NCATS), 2019).
The campaign covered roughly 45,000 compounds. About 200 (0.44%) were called active. Not shown: some 7% with an inconclusive outcome. Calls follow the shape of the dose curve; as a rule, active = well fitted activation curve with a large enough effect; inconclusive = small, poorly fitted or top-dose-only effect; inactive = no such curve, though single readings can be large or run the other way. Some of the results follow.

Assay: qHTS of TDP-43 Inhibitors: NCGC Sytravon Library Screen; also: 0% is about no effect; nearly all actives have a fitted effect of over 55% in size
Conditions: yeast TDP-43 toxicity rescue, BacTiter-Glo growth, 24 h; series mostly up to 46.1 µM; growth rescue (activation): at the top concentration
Method in brief: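 TDP-43-expressing yeast, pregrown in raffinose, seeded at OD600 0.02 in galactose medium with compound for 24 hr at 30 deg C. Growth read by BacTiter-Glo luminescence, so rescue of toxicity appears as activation.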

Compound	growth rescue (activation)
Cc1ccccc1C(=O)NCCCn1ccnc1	inactive: 9.64%
O=C(CC(NC(=O)c1ccccc1)c1ccccc1)Nc1cccc2ccccc12 (stereo unspecified)	inactive: 6.05%
O=C(c1ccc2c(c1)N(Cc1ccccc1)C(=O)c1ccccc1S2(=O)=O)N1CCCC1	inactive: 9.25%
O=C(O)c1nn(CC(=O)N2CCN(c3ccccc3)CC2)c(=O)c2ccccc12	inactive: 9.77%
CCCn1c(N)c(N(CCOC)C(=O)c2ccc(C#N)cc2)c(=O)[nH]c1=O	inactive: -10.4%
CC(=O)c1ccccc1OC(=O)CCN1C(=O)c2ccccc2C1=O	inactive: -4.92%
COc1cc(C(=O)NCCCN(C)C)ccc1OCC(=O)Nc1cccc(C(F)(F)F)c1	inactive: -1.17%
CCOC(=O)C1CCN(C(=O)/C=C/c2ccc(S(=O)(=O)N3CCOCC3)cc2)CC1	inactive: 11%
CN(c1ccc(C(=O)N/N=C/c2cccc([N+](=O)[O-])c2)cc1)S(=O)(=O)c1ccccc1	inactive: 4.54%
Nc1nnnn1/N=C/c1cc(Cl)cc(Cl)c1O	inactive: -6.94%
CCN(CC)C(=S)SCC(=O)Nc1nc(-c2ccccc2)c(-c2ccccc2)o1	inactive: 5.33%
CNCCOc1nc(N2CCOCC2)nc(C)c1[N+](=O)[O-]	inactive: 5.41%
Cc1ccccc1OCc1nnc(SC(C)C(=O)O)n1Cc1ccccc1 (stereo unspecified)	inactive: -17.2%
Cc1ccc(C)n1NC(=O)c1cccs1	inactive: 1.51%
Cc1cccc(OCCCn2c(=O)oc3ccccc32)c1	inactive: 17.8%
CSc1nc2ccc(NC(=O)c3cc4ccccc4o3)cc2s1	inactive: -6.03%
COc1cc(N(C(=O)Cc2cccs2)C(C(=O)NC2CCCCC2)c2ccc(C)cc2)ccc1-n1cnnn1 (stereo unspecified)	inactive: -2.9%
CCc1ccc(OCC(=O)NC(=S)Nc2ccc(C(=O)O)cc2)cc1	inactive: 26%
N#CCCn1cc(C=C(C#N)C#N)c(-c2ccc(Cl)cc2)n1	inactive: -14.8%
CCOc1ccc(S(=O)(=O)/N=C(\N)c2ccccc2)cc1	inactive: 10.9%
c1ccc(Cc2noc(CN3CCN(Cc4ccc5c(c4)OCO5)CC3)n2)cc1	inactive: -7.19%
CCOC(=O)Cc1csc(N/C(=N/S(=O)(=O)c2cc(Br)ccc2OCC)c2ccccc2)n1	inactive: -9.64%

Compound	growth rescue (activation)
OC(c1ccccc1)(c1nc(-c2cc(F)cc(F)c2)cs1)C(F)(F)F (stereo unspecified)	inactive: -92.7%
COc1ccc(CNC(=O)CN2CCC(NC(=O)c3cccc(OC)c3)CC2)cc1	inactive: 4.03%
O=C(COC(=O)/C=C/c1ccccc1)NNC(=O)c1ccccc1F	inactive: 10.7%
CCNC(=S)N1CCN(S(=O)(=O)c2ccc(Cl)s2)CC1	inactive: -7.32%
O=c1cc(CN2CCN(S(=O)(=O)c3cccc(Cl)c3)CC2)c2ccc(O)cc2o1	inactive: -9.13%
COc1ccc(OC)c(NC(=O)CSC2=C(C#N)C(c3ccco3)C3=C(CCCC3=O)N2)c1 (stereo unspecified)	inactive: 24.8%
O=C(c1cccnc1Nc1ccccc1F)N1CCOCC1	inactive: -10.1%
CCOC(=O)c1ccccc1NC(=O)NC(C)c1c(-n2cccc2)sc(C)c1C (stereo unspecified)	inactive: 15.7%
CC(Sc1ncnc2sccc12)C(=O)Nc1ccc(S(N)(=O)=O)cc1 (stereo unspecified)	inactive: 6.94%
Cc1cc(CN(C)C(=O)CCc2nnc(Cc3cccc(C(F)(F)F)c3)o2)on1	inactive: 8.43%
O=C(Nc1ccc(Cl)c(Cl)c1)C1C2C=CC3(O2)C1C(=O)N(CCN1CCCCC1)C3C(=O)NC1CCCCC1 (stereo unspecified)	inactive: -1.04%
CC1CCCN(C(=O)/C(=C/c2ccco2)NC(=O)c2ccccc2)C1 (stereo unspecified)	inactive: -9.61%
CCN1/C(=C/c2cc[n+](C)cc2)C=Cc2cc(C)ccc21	inactive: 4.68%
C=CCn1c(C)cc(C(=O)COC(=O)/C=C/c2ccc(OC)cc2)c1C	inactive: 11%
CCn1ccnc1CNC(=O)CC1C(=O)NCCN1CC(c1ccccc1)c1ccccc1 (stereo unspecified)	inactive: 3.55%
CC(C)NC(=O)C1CCN(C2CCN(Cc3cn[nH]c3-c3ccccc3)CC2)CC1	inactive: 8.31%
O=C(NCc1cccnc1)c1cc(Sc2ccc(F)cc2F)nc2ccccc12	inactive: 1.65%
CC(C)Cn1c(SCC(=O)Nc2ccc(Cl)cc2F)nc(O)cc1=O	inactive: -6.57%
COc1ccc(C(=O)N(Cc2ccc(N(C)C)cc2)Cc2ccco2)cc1Cl	inactive: -4.57%
O=C(NC(=S)NCCc1ccccn1)c1ccco1	inactive: -22.2%
CC1(C(=O)NS(=O)(=O)c2cccc(C#N)c2)CCN1C(=O)C1(c2ccc(Cl)cc2)CCC1 (stereo unspecified)	inactive: 13.9%
CCOC(CNC(=O)c1ccc2c(c1)ncn2-c1ccccc1OC)OCC	inactive: 5.81%

Compound	growth rescue (activation)
COc1ccc(N(C(=O)c2snc(C(N)=O)c2N)C(C(=O)NCc2ccc(F)cc2)c2ccc(C)o2)c(OC)c1 (stereo unspecified)	inactive: 6.94%
Cc1cccc(Nc2ccc(C(=O)N3CCOCC3)cn2)c1	inactive: 11.5%
COCCn1c(SCc2ccccc2)nc2c1c(=O)[nH]c(=O)n2C	inactive: 2.26%
N#CC(C(=O)Nc1cccc(Cl)c1)=C1Nc2ccccc2N1	inactive: 21%
CCN(CC)C(=O)CS(=O)CC(=O)Nc1cc(OCCOC)c(Cl)cc1Cl (stereo unspecified)	inactive: 0.824%
COc1ccc(Cn2c(=O)[nH]c3cc(C(=O)NC4CCN(Cc5ccccc5)CC4)ccc32)cc1	inactive: 8.42%
Cc1nnc(NC(=O)C2CCCN2C(=O)Nc2ccccc2)s1 (stereo unspecified)	inactive: -17.9%
Cc1ccc(C(=O)Nc2ccc(S(=O)(=O)Nc3cnc4ccccc4n3)cc2)cc1	inactive: 5.52%
COc1cc2c(cc1NC(=O)c1ccccc1F)CCCC2	inactive: -10.1%
CC1(C(=O)Nc2ccc(Cl)c(Cl)c2)CCN1C(=O)Cc1cccc2ccccc12 (stereo unspecified)	inactive: 2.4%
Cc1cc(C)cc(OCc2nnc(SCC(=O)N3CCCCC3)o2)c1	inactive: 27.1%
CCOC(=O)Cc1c(Cl)c2ccccc2[nH]c1=O	inactive: 8.4%
COC(=O)c1cc(COC(=O)c2ccc(OC)c(S(=O)(=O)N3CCCC3)c2)oc1C	inactive: -25.8%
CN(C)C(=S)NC(=O)C12CC3(C)CC(C)(CC(C)(C3)C1)C2	inactive: 18.6%
COc1ccc(OCC(=O)NS(=O)(=O)c2ccc(Cl)cc2)cc1	inactive: 16.6%
COc1ccc(C)cc1N(C(=O)CNC(=O)c1ccco1)C(C(=O)NCC1CCCO1)c1ccccc1 (stereo unspecified)	inactive: -8.77%
O=C(/C=C/c1ccc([N+](=O)[O-])cc1)OCC(=O)N1CCCCCC1	inactive: 9.9%
CCc1ccc(/C=C(/C#N)C(N)=S)s1	inactive: -6.07%
COc1cccc(-c2nc(N3CCN(c4ccccc4)CC3)c3ccccc3n2)c1O	inactive: -3.87%
Cc1ccc(-n2nc3ccc(NC(=O)c4oc5ccc(C)cc5c4C)cc3n2)cc1	inactive: 9.23%
COc1cc(NC(=O)COc2ccc(Br)cc2)ccc1NC(=O)C(C)C	inactive: -1.32%
O=C(COc1ccc(/C=N/NC(=O)c2ccncc2)cc1)Nc1ccc([N+](=O)[O-])cc1	inactive: -12.3%
